The source of these data is PubChem BioAssay AID2202238 (Ras Initiative Chemistry Research Team, Frederick National …, 2025).

For the assay, the target named is GTPase KRas (Homo sapiens) (UniProt P01116). As to the kind of experiment: Covalent labelling of cysteine mutants by fragments, read by mass spectrometry (AID 2202238). Also noted: protein at 5 µM with 500 µM competing thiol for 1.5 h. The following applies: KRAS G12D cysteine mutants, disulfide tethering, MALDI-TOF labeling, stronger effect = higher value, fragment at 500 µM.

Where [1] appears, read: measured here: G60C mutant labeling.
The mark [2] stands for this setting: measured here: G75C mutant labeling.
Where [3] appears, read: measured here: H94C mutant labeling.
Where [4] appears, read: measured here: I36C mutant labeling.
Where [5] appears, read: measured here: L120C mutant labeling.
Setting [6] is: measured here: M67C mutant labeling.
The mark [7] stands for this setting: measured here: M72C mutant labeling.
[8] abbreviates: measured here: N26C mutant labeling.
Where [9] appears, read: measured here: N86C mutant labeling.
Setting [10] is: measured here: P121C mutant labeling.
Where [11] appears, read: measured here: S122C mutant labeling.
The mark [12] stands for this setting: measured here: S136C mutant labeling.

The other results are listed elsewhere or left out. These are further read-outs of the screen, such as a control signal, another cell line or another target. No call is given for them.

Sequence of UniProt P01116 (P01116 whole entry, looked up, the tested form may be a part): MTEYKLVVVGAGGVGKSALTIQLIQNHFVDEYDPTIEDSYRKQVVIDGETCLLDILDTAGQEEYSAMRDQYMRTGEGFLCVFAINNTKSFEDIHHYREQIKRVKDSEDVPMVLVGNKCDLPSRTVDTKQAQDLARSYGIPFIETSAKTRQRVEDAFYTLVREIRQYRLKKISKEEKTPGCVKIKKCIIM

For the compound `Cc1c(C(=O)NCCS)ccc2cnc(C3CC3)n12`, the percent labeling worked out at 0% under setting [1]; 0% under setting [2]; 0% under setting [3]; 0% under setting [4]; 0% under setting [5]; 0% under setting [6]. Moreover, the percent labeling stood at 3.2% under setting [7]; 8.5% under setting [8]; 7.9% under setting [9]; 5.7% under setting [10]; 9.5% under setting [11]; 13.4% under setting [12].
Take `O=C(NCCS)c1cnccc1Oc1ccccc1`: the percent labeling is 44.4% under setting [1]; 24.8% under setting [2]; 40% under setting [3]; 16.2% under setting [4]; 37.4% under setting [5]; 25.1% under setting [6]. Moreover, the percent labeling is, setting by setting: under setting [7], 20.4%; under setting [8], 30%; under setting [9], 16.8%; under setting [10], 29.1%; under setting [11], 17.3%; under setting [12], 67.6%.
For the compound `Cc1cc(F)ccc1CC1(C(=O)NCCS)CC1`, the percent labeling is, setting by setting: under setting [1], 42%; under setting [2], 16.2%; under setting [3], 22.5%; under setting [4], 16.8%; under setting [5], 22.4%; under setting [6], 22.5%. Besides, the percent labeling runs as follows: under setting [7], 37.2%; under setting [8], 33.4%; under setting [9], 13.7%; under setting [10], 14.7%; under setting [11], 14.7%; under setting [12], 29.3%.
Compound `O=C(CCS)Nc1cnn(Cc2ccccn2)c1` returned a percent labeling under setting [2] of 11.7%; a percent labeling under setting [3] of 26.9%; a percent labeling under setting [4] of 40.2%; a percent labeling under setting [5] of 30.1%; a percent labeling under setting [6] of 40.4%; a percent labeling under setting [7] of 24.9%. Further, the percent labeling reads like this: under setting [9], 31.3%; under setting [10], 29.8%; under setting [11], 29.7%; under setting [12], 55.7%.
As to `O=C(CCS)NCc1cnc2ccccc2c1`, the percent labeling runs as follows: under setting [2], 20.6%; under setting [3], 31.8%; under setting [4], 45.3%; under setting [5], 23.1%; under setting [6], 47.7%; under setting [7], 41.2%. The percent labeling runs as follows: under setting [9], 27.1%; under setting [10], 30.7%; under setting [11], 29.6%; under setting [12], 54.3%.
Take `CN(C)C(CCC(=O)NCCS)c1ccccc1` (stereo not given): the percent labeling under setting [1] turned out to be 45.3%; the percent labeling under setting [2] was found to be 13.8%; the percent labeling under setting [3] is 35.5%; the percent labeling under setting [4] was determined as 32.4%; the percent labeling under setting [5] turned out to be 32.6%; the percent labeling under setting [6] turned out to be 45.8%. For the same compound, the percent labeling was 18.6% under setting [7]; 39.5% under setting [8]; 25.8% under setting [9]; 31.2% under setting [10]; 27.6% under setting [11]; 62.5% under setting [12].
As to `O=C(CCS)NCc1cccc(C(=O)N2CCOCC2)c1`, the percent labeling by setting is: under setting [2], 7.4%; under setting [3], 30.6%; under setting [4], 43.7%; under setting [5], 29.1%; under setting [6], 36.5%; under setting [7], 11.8%. Further, the percent labeling runs as follows: under setting [9], 19.6%; under setting [10], 30.2%; under setting [11], 28%; under setting [12], 47.6%.
For `COc1nc(CNC(=O)CCS)ccc1OCc1ccccc1`, the percent labeling came to 11.6% under setting [2]; 20.5% under setting [3]; 20.6% under setting [4]; 14% under setting [5]; 39.1% under setting [6]; 27.3% under setting [7]. Besides, the percent labeling by setting is: under setting [9], 14.7%; under setting [10], 13.7%; under setting [11], 13%; under setting [12], 27.8%.
Regarding `O=C(Nc1ccc2c(c1)CCO2)C1CCCCN1C(=O)CCS` (stereo not given), the percent labeling is, setting by setting: under setting [2], 10.1%; under setting [3], 26.4%; under setting [4], 21.2%; under setting [5], 22.1%; under setting [6], 23.8%; under setting [7], 23.2%. The compound also registered a percent labeling under setting [9] of 11.2%, a percent labeling under setting [10] of 20.3%, a percent labeling under setting [11] of 14.6% and a percent labeling under setting [12] of 30.9%.
`CCn1cc(CC(=O)NCCS)c2ccccc21`: the percent labeling under setting [1] was determined as 31.7%; the percent labeling under setting [2] is 21.7%; the percent labeling under setting [3] came out at 24.6%; the percent labeling under setting [4] came out at 19.1%; the percent labeling under setting [5] was 33%; the percent labeling under setting [6] was 10.4%. For the same compound, the percent labeling worked out at 30.9% under setting [7]; 29.5% under setting [8]; 14.7% under setting [9]; 17.3% under setting [10]; 16.5% under setting [11]; 41.7% under setting [12].
`O=C(Cc1ccccc1Nc1c(Cl)cccc1Cl)NCCS`: the percent labeling runs as follows: under setting [1], 60.6%; under setting [2], 16.9%; under setting [3], 16.7%; under setting [4], 11.7%; under setting [5], 27.7%; under setting [6], 7.4%. The percent labeling amounted to 32.7% under setting [7]; 18.8% under setting [8]; 7.2% under setting [9]; 16.7% under setting [10]; 3.6% under setting [11]; 18.7% under setting [12].
With `Cn1ccnc1CN1CCN(C(=O)CCS)CC1`, the percent labeling is, setting by setting: under setting [2], 4.2%; under setting [3], 17.9%; under setting [4], 22.5%; under setting [5], 18.9%; under setting [6], 26.4%; under setting [7], 5.8%. Also, the percent labeling under setting [9] was found to be 5.9%, the percent labeling under setting [10] is 18.6%, the percent labeling under setting [11] is 18.2% and the percent labeling under setting [12] was 45.5%.
Take `O=C(NCCS)c1cn([C@@H]2COC[C@H]2O)nn1`: the percent labeling was 23.4% under setting [1]; 14.6% under setting [2]; 30.5% under setting [3]; 25.6% under setting [4]; 43.2% under setting [5]; 33.5% under setting [6]. The percent labeling was 30.4% under setting [7]; 44.8% under setting [8]; 29.3% under setting [9]; 31.3% under setting [10]; 36.8% under setting [11]; 46.7% under setting [12].
For the compound `O=C(NCCS)c1cc(C2CC2)nc2ccccc12`, the percent labeling reads like this: under setting [1], 39.4%; under setting [2], 17.1%; under setting [3], 22.4%; under setting [4], 11.6%; under setting [5], 20.7%; under setting [6], 15.5%. Also, the percent labeling runs as follows: under setting [7], 31.7%; under setting [8], 37.2%; under setting [9], 10.7%; under setting [10], 17.2%; under setting [11], 10.2%; under setting [12], 43.5%.
`O=C(CCS)NCc1ccc2c(c1)CC(=O)N2` showed a percent labeling under setting [2] of 0%; a percent labeling under setting [3] of 9.1%; a percent labeling under setting [4] of 21.2%; a percent labeling under setting [5] of 7.2%; a percent labeling under setting [6] of 10.2%; a percent labeling under setting [7] of 6.2%. In addition, the percent labeling under setting [9] stood at 2.8%, the percent labeling under setting [10] came to 18%, the percent labeling under setting [11] turned out to be 11.6% and the percent labeling under setting [12] came out at 18.8%.
For the compound `COc1ccc(C(=O)NCCS)c(OC(F)F)c1`, the percent labeling runs as follows: under setting [1], 41.7%; under setting [2], 26.4%; under setting [3], 32.5%; under setting [4], 21.8%; under setting [5], 37%; under setting [6], 27.7%. The percent labeling runs as follows: under setting [7], 44.6%; under setting [8], 40%; under setting [9], 31.2%; under setting [10], 43.2%; under setting [11], 27.7%; under setting [12], 39.9%.
`O=C(CCS)N1CCN(c2ncnc3ccsc23)CC1`: the percent labeling is 22.1% under setting [2]; 30.1% under setting [3]; 35.2% under setting [4]; 24.7% under setting [5]; 45.5% under setting [6]; 35.7% under setting [7]. Further, the percent labeling under setting [9] was 17.4%, the percent labeling under setting [10] was 30.2%, the percent labeling under setting [11] came out at 24.6% and the percent labeling under setting [12] was 54.6%.
Regarding `O=C(CCS)Nc1ncn(C2CCCCC2)n1`, the percent labeling reads like this: under setting [2], 18.4%; under setting [3], 27.5%; under setting [4], 35.2%; under setting [5], 35.9%; under setting [6], 24.6%; under setting [7], 31.1%. Further, the percent labeling is, setting by setting: under setting [9], 22.3%; under setting [10], 30.6%; under setting [11], 33.8%; under setting [12], 50.1%.
`CN1C(=O)NC2(CCN(C(=O)CCS)CC2)C1=O` had a percent labeling under setting [2] of 9.5%; a percent labeling under setting [3] of 29%; a percent labeling under setting [4] of 34.8%; a percent labeling under setting [5] of 31.1%; a percent labeling under setting [6] of 36.9%; a percent labeling under setting [7] of 17.7%. The percent labeling was found to be 19.9% under setting [9], 33% under setting [10], 36.6% under setting [11] and 44.9% under setting [12].
Compound `CCN(CC)C(=O)c1cc(NC(=O)CCS)nn1C` came in with a percent labeling under setting [2] of 12.2%; a percent labeling under setting [3] of 36.4%; a percent labeling under setting [4] of 35.2%; a percent labeling under setting [5] of 45.3%; a percent labeling under setting [6] of 29.8%; a percent labeling under setting [7] of 33%. For the same compound, the percent labeling stood at 28% under setting [9], 31.7% under setting [10], 37.3% under setting [11] and 52.2% under setting [12].
`O=C(CCS)Nc1cncc(-c2nccs2)c1` registered a percent labeling under setting [2] of 20%; a percent labeling under setting [3] of 29%; a percent labeling under setting [4] of 30%; a percent labeling under setting [5] of 26.2%; a percent labeling under setting [6] of 24.5%; a percent labeling under setting [7] of 50.4%. In addition, the percent labeling by setting is: under setting [9], 17.8%; under setting [10], 23.5%; under setting [11], 24.9%; under setting [12], 46.9%.
As to `O=C(CCS)N1CC(Oc2ccc(Cl)cc2)C1`, the percent labeling under setting [2] was 18.3%; the percent labeling under setting [3] came to 19.9%; the percent labeling under setting [4] came to 21.2%; the percent labeling under setting [5] is 19.8%; the percent labeling under setting [6] was determined as 30.7%; the percent labeling under setting [7] came out at 28%. The percent labeling by setting is: under setting [9], 15.4%; under setting [10], 25.7%; under setting [11], 15.8%; under setting [12], 31.4%.
As for `O=C(CC1(CCc2ccccc2)CCCC1)NCCS`, the percent labeling turned out to be 41.6% under setting [1]; 9.7% under setting [2]; 10.3% under setting [3]; 7.1% under setting [4]; 21.7% under setting [5]; 10.1% under setting [6]. Also, the percent labeling by setting is: under setting [7], 16%; under setting [8], 22.7%; under setting [9], 13.5%; under setting [10], 19.4%; under setting [11], 9%; under setting [12], 19.8%.
